Results on 89 compounds are retold here after paper PMC4336329 (PLoS ONE, 2015).

The whole screen tested about 310,000 compounds, of which about 2,200 (0.71%) showed an effect of 50% or more. The effect is printed as a negative number. The list shows a part of the results.

Sequence of human ether-à-go-go-related gene (hERG) potassium channel (Q12809 whole entry, looked up): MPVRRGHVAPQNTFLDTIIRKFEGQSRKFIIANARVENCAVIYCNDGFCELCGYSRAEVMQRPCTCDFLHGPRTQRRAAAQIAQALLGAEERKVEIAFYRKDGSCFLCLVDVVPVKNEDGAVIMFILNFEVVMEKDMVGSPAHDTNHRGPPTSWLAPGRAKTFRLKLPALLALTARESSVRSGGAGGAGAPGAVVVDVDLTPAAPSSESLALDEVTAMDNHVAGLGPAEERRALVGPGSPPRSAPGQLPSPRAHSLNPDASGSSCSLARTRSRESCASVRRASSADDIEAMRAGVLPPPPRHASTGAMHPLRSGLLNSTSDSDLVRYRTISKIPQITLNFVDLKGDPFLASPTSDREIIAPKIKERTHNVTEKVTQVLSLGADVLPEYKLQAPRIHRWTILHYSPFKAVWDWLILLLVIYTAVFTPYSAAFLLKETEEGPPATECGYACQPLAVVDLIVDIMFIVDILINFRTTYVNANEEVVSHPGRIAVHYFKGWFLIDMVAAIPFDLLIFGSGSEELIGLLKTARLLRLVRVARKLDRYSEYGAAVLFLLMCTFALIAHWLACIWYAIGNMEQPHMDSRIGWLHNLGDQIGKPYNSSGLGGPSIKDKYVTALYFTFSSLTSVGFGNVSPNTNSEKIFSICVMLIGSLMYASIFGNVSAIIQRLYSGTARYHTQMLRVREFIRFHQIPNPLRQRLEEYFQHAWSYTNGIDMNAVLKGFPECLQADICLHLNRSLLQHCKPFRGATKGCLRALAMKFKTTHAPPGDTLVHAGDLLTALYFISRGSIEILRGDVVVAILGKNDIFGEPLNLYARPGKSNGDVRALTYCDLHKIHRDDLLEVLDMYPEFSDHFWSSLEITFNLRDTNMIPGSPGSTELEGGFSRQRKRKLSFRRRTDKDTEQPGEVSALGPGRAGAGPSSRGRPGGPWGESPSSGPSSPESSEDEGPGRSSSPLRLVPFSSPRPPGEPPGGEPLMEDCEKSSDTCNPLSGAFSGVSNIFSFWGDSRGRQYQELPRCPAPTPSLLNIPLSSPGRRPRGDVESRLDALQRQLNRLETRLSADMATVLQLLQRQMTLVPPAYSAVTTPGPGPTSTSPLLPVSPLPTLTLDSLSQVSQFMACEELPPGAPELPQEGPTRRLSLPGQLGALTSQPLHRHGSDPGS

This assay has as its target human ether-à-go-go-related gene (hERG) potassium channel (human, UniProt Q12809). Put plainly: primary screen, population patch clamp on CHO cells stably expressing hERG.
Consider `CC(Cl)C(=O)Nc1cc(C(F)(F)F)ccc1N1CCOCC1` (centres unmarked), for which the “hERG current change (%, negative = inhibition) at 1uM” value came to 4.37%.

With `O=C(N/N=C/c1ccncc1)c1cc([N+](=O)[O-])cc([N+](=O)[O-])c1O`, the “hERG current change (%, negative = inhibition) at 1uM” value stood at 6.52%. The figure for `COc1cccc(-c2nn(C)c3sc(C(=O)NCc4ccco4)cc23)c1` is 8.32%; for `COc1ccc(S(=O)(=O)NCC2CCC(C(=O)NCc3ccc(F)cc3)CC2)cc1` (centres unmarked) it is 13.1%; for `CCOC(=O)c1cc(C)sc1NC(=O)CSc1nnnn1C` it is 8.11%. The figure for `COc1cc(C)c(S(=O)(=O)NCCCn2ccnc2)cc1C` is 12.8%; for `COC(=O)Nc1ccc(S(=O)(=O)N2c3ccccc3CCC2C)cc1` (centres unmarked) it is 0.641%.

Turning to `CCOC(=O)COc1cc(OCC(=O)OCC)c2c3c(c(=O)oc2c1)CCCC3`, the “hERG current change (%, negative = inhibition) at 1uM” value was determined as 14.5%. `CN(Cc1c(C(=O)N/N=C/c2ccccc2)nnn1-c1nonc1N)C1CCCCC1`: the “hERG current change (%, negative = inhibition) at 1uM” value was found to be 10.3%. Turning to `Cc1ccc(S(=O)(=O)N2CCCC(C(=O)N3CCN(c4ccccc4)CC3)C2)cc1` (centres unmarked), the “hERG current change (%, negative = inhibition) at 1uM” value is listed as -0.073%. The figure for `Cc1ccc(Cn2cc(/C=C/C(=O)O)c(-c3ccccc3)n2)cc1` is 6.62%; for `CCC(NC(=S)NC1CCCCC1)c1ccccc1` (centres unmarked) it is 11.9%; for `C#Cc1cccc(C(=O)N2CCCC(Nc3cccc(F)c3)C2)c1` (centres unmarked) it is 2.4%. Take `CC(=O)N1c2ccc(S(=O)(=O)NCCC(=O)N3CCC(C)CC3)cc2CC1C` (centres unmarked): the “hERG current change (%, negative = inhibition) at 1uM” value worked out at 13.5%. Turning to `O=C(COc1ccc2ccccc2c1)Nc1cccc(C(=O)Nc2ccccc2C(=O)O)c1`, the “hERG current change (%, negative = inhibition) at 1uM” value turned out to be 10.4%.

For `O=C(CCSc1ccccc1Cl)Nc1cccc([N+](=O)[O-])c1`, the “hERG current change (%, negative = inhibition) at 1uM” value is on record as 0.0505%. The figure for `CC(C)(C)[C@H]1C=C(C(=O)Nc2ccccc2)O[C@@H](OCCCCO)C1` is 13.4%; for `Cn1c(=O)oc2cc(S(=O)(=O)CCC(=O)Nc3ccccc3)ccc21` it is 24.5%; for `CC(C)OC(=O)Nc1ccc(N=C(N)N[N+](=O)[O-])cc1` it is 8.63%. The figure for `CCn1c(CN2CCN(Cc3ccc(C)cc3)C(CCO)C2)nc2ccccc21` (centres unmarked) is -50.5%; for `CC(C)NC(=O)C1COc2ccccc2O1` (centres unmarked) it is 20.7%. Take `O=C(Nc1ccccc1)Nc1ccc2ccccc2n1`: the “hERG current change (%, negative = inhibition) at 1uM” value was 7.12%.

As for `CC(=O)c1cccc(NC(=O)N2CCCC2C(=O)NC2CCCCC2)c1` (centres unmarked), the “hERG current change (%, negative = inhibition) at 1uM” value amounted to 15.8%. The same measure for `Cc1ccc(S(=O)(=O)N2CC(C)N(S(C)(=O)=O)C2)cc1` (centres unmarked): 14.4%. Turning to `CCCn1c(NC(=O)c2ccccc2Br)nc2ccccc21`, the “hERG current change (%, negative = inhibition) at 1uM” value is given as 14.9%. The figure for `Cc1ccc(S(=O)(=O)N2CCN(C(=O)COC(=O)CNC(=O)c3ccc(Cl)cc3Cl)CC2)cc1` is 10.9%; for `COc1ccc(N2CCN(CC(O)COc3ccc([N+](=O)[O-])cc3)CC2)cc1.Cl` (centres unmarked) it is -45.5%; for `CC(=O)Nc1nc(-c2cc([N+](=O)[O-])cs2)cs1` it is 16.6%. The same measure for `N#CC1=C(N)NC(SCC(=O)O)=C(C#N)C12CCCC2`: 2.54%.

Take `COc1ccc(CCNC(=O)CCCCCN2C(=O)[C@@H]3Cc4ccccc4CN3C2=O)cc1OC`: the “hERG current change (%, negative = inhibition) at 1uM” value was -2.73%. As for `Cc1ccccc1CN(c1ccc(C(N)=O)cc1)S(C)(=O)=O`, the “hERG current change (%, negative = inhibition) at 1uM” value was -5.7%. The figure for `Cl.OC(COCc1ccccc1F)CN1CCCCC1` (centres unmarked) is 8.92%; for `COc1ccc(-c2c3c(nc4sc(C(=O)Nc5cc(C)on5)c(N)c24)CCC3)cc1` it is 4.77%; for `O=C(COC(=O)c1n[nH]c2ccccc12)Nc1ccccc1` it is 4.91%. The figure for `COc1cccc(NC(=O)C2CCC2)c1` is 9.17%; for `COc1ccn(C)c(=O)c1C#N` it is 12.8%. The same measure for `Cc1ccc(CN(C)CC(=O)Nc2ccccc2C(=O)NC2CC2)o1`: 4.6%; for `Cc1sc2ncnc(NCC(O)c3ccccc3)c2c1C` (centres unmarked): 13.7%; for `O=C1[C@@H]2[C@@H]3C[C@@H]([C@H]4ON=C(c5ccc(Cl)cc5Cl)[C@@H]34)[C@@H]2C(=O)N1C1CCCCC1`: 8.29%.

Turning to `O=C(CCN1CCN(c2ccccc2)CC1)c1ccc(Br)cc1`, the “hERG current change (%, negative = inhibition) at 1uM” value is recorded as -0.103%. The figure for `CCOC(CNC(=O)Cn1nc(Cc2ccncc2)c2ccccc2c1=O)OCC` is 15.1%. As for `Cc1ccc(-n2cc(C(=O)c3ccc(N4CCN(C)CC4)cc3)nn2)cc1Cl`, the “hERG current change (%, negative = inhibition) at 1uM” value is on record as 14%. Take `COc1cccc(NC(=O)c2ccc(CN3CCOCC3)cc2)c1`: the “hERG current change (%, negative = inhibition) at 1uM” value amounted to 8.82%. For the compound `Oc1ccc(N2CCN(c3ccnc4cc(Cl)ccc34)CC2)cc1`, the “hERG current change (%, negative = inhibition) at 1uM” value is recorded as 5.36%.

For `COc1ccc(C2/C=C\CN(C(=O)Nc3ccccc3)CC(=O)N2Cc2ccc(F)cc2)cc1` (centres unmarked), the “hERG current change (%, negative = inhibition) at 1uM” value is on record as 11.1%. The figure for `COc1cccc(OCC(=O)NNC(=O)c2cccs2)c1` is 9.89%. As for `Cc1ccc(N2CC(NC(=O)C(=O)c3c(C)[nH]c4ccccc34)CC2=O)cc1` (centres unmarked), the “hERG current change (%, negative = inhibition) at 1uM” value is on record as -19.6%. The same measure for `CN(Cc1nc(-c2ccccn2)no1)S(=O)(=O)c1ccc(Cl)cc1`: 3.37%; for `COc1cccc(OCC(O)CN2CCOCC2)c1.Cl` (centres unmarked): 14.2%; for `Cc1ccc(-c2nc(NC(=O)CSc3nnc4scc(-c5ccccc5)n34)ns2)cc1`: 3.14%. The same measure for `CCN(CC(=O)NCc1ccccc1Cl)CC(=O)Nc1c(F)cccc1F.O=C(O)C(=O)O`: 7.28%. The figure for `CS(=O)(=O)N1CCC(C(=O)NCC2CCCO2)CC1` (centres unmarked) is 11.3%. As for `O=[N+]([O-])c1cc(-c2csc(NCCc3nc4cc(C(F)(F)F)ccc4n3CCCO)n2)ccc1Cl`, the “hERG current change (%, negative = inhibition) at 1uM” value is recorded as 1.8%.

As to `CSc1ncc(CN2CCN(C(C)C)C(CCO)C2)cn1` (centres unmarked), the “hERG current change (%, negative = inhibition) at 1uM” value turned out to be 9.96%.

Take `CCOC(=O)N1CCN(C(=O)/C(=C/c2ccc(N(C)C)cc2)NC(=O)c2ccccc2)CC1`: the “hERG current change (%, negative = inhibition) at 1uM” value was found to be 11.8%. The same measure for `Cc1c(OCC(=O)N2CCC(C(N)=O)CC2)ccc2c3c(c(=O)oc12)CCCC3`: 18%; for `Cc1cc(C)nc(SCc2nc3ccccc3n2C)n1`: 8.87%. The same measure for `O=C(O)c1cccnc1SCC(=O)N1CCCc2ccccc21`: 13.2%. The figure for `N#Cc1ccc(NCC(=O)Nc2ccc3c(c2)OCCO3)cc1` is 7.6%. In the case of `Cc1ccc(NC(=O)NNC(=O)c2ccccc2)cc1`, the “hERG current change (%, negative = inhibition) at 1uM” value was found to be 18.2%.

As to `CCn1c(CNc2ccc(Cl)cc2)nnc1SCC(=O)NCc1ccccc1`, the “hERG current change (%, negative = inhibition) at 1uM” value is given as -14.8%.

`O=C(COC(=O)c1cc(S(=O)(=O)N2CCOCC2)c(Cl)cc1Cl)NC1CC1`: the “hERG current change (%, negative = inhibition) at 1uM” value came out at 12.3%. The figure for `O=C(O)c1cccc(-n2nnnc2SCc2ccccn2)c1` is -9.69%; for `COc1ccc(-c2c3c(=O)n(C)c(=O)n(C)c3cn2NC(C)=O)cc1` it is 16%; for `COC(=O)CC1C(=O)NCCN1C(=O)CSc1nnc(Nc2ccc(OC)cc2)s1` (centres unmarked) it is 1.83%.

As to `CCc1ccc(NC(=O)CCNS(=O)(=O)c2cccc3nsnc23)cc1`, the “hERG current change (%, negative = inhibition) at 1uM” value is listed as -0.137%.

`CCOC(=O)c1cc(CC)sc1NC(=O)c1ccc([N+](=O)[O-])c(N2CCOCC2)c1`: the “hERG current change (%, negative = inhibition) at 1uM” value came to 10.6%. Take `CCOc1cc(C2NC(=S)NC(C)=C2C(=O)Nc2ccc(OC)cc2)ccc1O` (centres unmarked): the “hERG current change (%, negative = inhibition) at 1uM” value is 7.01%. The figure for `COCCCn1c(C(C)C)nc2oc3cc(OC)ccc3c(=O)c2c1=O` is -0.0816%; for `CC1CCN(C(=O)C2CCCN(c3ncnc4c3nc3n4CCCCC3)C2)CC1` (centres unmarked) it is 8.7%; for `CCOC(=O)c1[nH]c2ccc(Br)cc2c1NC(=O)CCN1CCOCC1` it is 8.79%. For the compound `CSc1n[nH]c(NCc2ccccc2)n1`, the “hERG current change (%, negative = inhibition) at 1uM” value came to 7.68%. The figure for `O=C(O)c1ccc(OCC2CCCO2)cc1` (centres unmarked) is 9.64%; for `C/C(=N\O)C(=O)NCCCNCCCN(C)C` it is 16.3%.

As to `CCOC(=O)N1CCN(c2c(NCc3ccccc3OC)c(=O)c2=O)CC1`, the “hERG current change (%, negative = inhibition) at 1uM” value came out at 8.96%. The same measure for `C=CC(=O)NCNC(=O)C=C`: 9.05%; for `NC(=O)Cn1nnc(-c2ccc(CN3CCCCC3)cc2)n1`: 13.3%; for `Cc1cc(/C=C2\C(=N)N3C(SCc4ccccc4)=NSC3=NC2=O)c(C)n1Cc1ccccc1`: 1.49%.

Consider `O=C1c2cccc3cc([N+](=O)[O-])cc(c23)C(=O)N1/N=C/c1ccc(O)cc1O`, for which the “hERG current change (%, negative = inhibition) at 1uM” value stood at 11.9%. Take `COc1ccc(N(CC(=O)N/N=C/c2ccc(C(=O)O)cc2)S(=O)(=O)c2ccc(NC(C)=O)cc2)cc1`: the “hERG current change (%, negative = inhibition) at 1uM” value came to 10.8%. As for `COc1ccc(NC(=O)c2ccc(CN3CCc4ccccc4C3)cc2)c(OC)c1`, the “hERG current change (%, negative = inhibition) at 1uM” value came out at 12.3%.

On to `COc1ccc(C(c2nnnn2Cc2ccc(F)cc2)N2CCN(c3ccc(OC)cc3)CC2)cc1` (centres unmarked), for which the “hERG current change (%, negative = inhibition) at 1uM” value was -1.07%. As to `CCCCCCC1CC(/C(C)=N\NC(N)=O)OC1=O` (centres unmarked), the “hERG current change (%, negative = inhibition) at 1uM” value is -10.9%. The figure for `O=C(CSc1nnc2ccc(-c3ccc(F)cc3)nn12)NCC1CCCO1` (centres unmarked) is -0.927%; for `Cc1nnc(SCC(=O)N2CC(=O)Nc3ccccc32)s1` it is 2.13%. The same measure for `Cc1cccc(-n2c(-c3cccs3)nc3ccccc3c2=O)c1`: 9.53%; for `COc1ccc(Cl)cc1NC(=O)CN(c1ccccc1)S(=O)(=O)N(C)C`: 8.52%. As for `Cc1cc(NC(=O)CSc2nnc(C3CC3)n2N)c([N+](=O)[O-])cc1C`, the “hERG current change (%, negative = inhibition) at 1uM” value is recorded as 24.8%. The same measure for `CCC(C)(C)C(=O)Nc1cc([N+](=O)[O-])ccc1F`: 11.6%.
